Results taken from the RNAGym collection of RNA variant scans (doi:10.1073/pnas.2313332121).
Variants at the background level are over-represented here.

B1: TPR 5TU (parent)
chain: GGAUCUUCUCGAUCUAACAAAAAAGACAAAUCUGCCACAAAGCUUGAGAGCAUCUUCGGAUGCAGAGGCGGCAGCCUUCGGUGGCGCGAUAGCGCCAACGUUCUCAACUAUGACACGCAAAACGCGUGCUCCGUUGAAUGGAGUUUAUCAUG

Variants of: B1
Assay: polymerase ribozyme fitness, log enrichment relative to wild type (log ratio); higher = more active; in vitro selection for triplet polymerase activity
In short: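 Genotype fitness is the logarithm of its enrichment divided by wild-type enrichment, using inverse-variance-weighted averages of replicates. That logarithm is base 2. Enrichment was measured by Illumina sequencing of input and output libraries from one triplicate in vitro selection round, with frozen incubation at −7 °C, on PCR-built, transcribed mutant libraries of each subunit of a heterodimeric triplet polymerase ribozyme, retaining genotypes with ≥10 input reads and ≥1 read per output.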

Polymerase ribozyme fitness (log ratio), -4.2:
A20G A29U C51A A106C A113U

Polymerase ribozyme fitness (log ratio), -0.162:
A21C U53A G58A C95U U101G C116A

Polymerase ribozyme fitness (log ratio), 0.465:
A21G C99U

Polymerase ribozyme fitness (log ratio), -2.6:
A21U C96U A113U

Polymerase ribozyme fitness (log ratio), -2.13:
A20C G83U A89U A97U

Polymerase ribozyme fitness (log ratio), -2.09:
A20U A37C A52G G124U

Polymerase ribozyme fitness (log ratio), -4.13:
A20U U45A C87G

Polymerase ribozyme fitness (log ratio), -0.0234:
A21G C76A G86U C93G U101C A122G

Polymerase ribozyme fitness (log ratio), -4.05:
A20G G59C G70A

Polymerase ribozyme fitness (log ratio), -3.16:
A21C A89C C95U A142G

Polymerase ribozyme fitness (log ratio), -0.835:
A21G U56C C93U

Polymerase ribozyme fitness (log ratio), -0.168:
A20U G81C A147U

Polymerase ribozyme fitness (log ratio), -3.94:
A20U A40C U55A A73U

Polymerase ribozyme fitness (log ratio), -3.75:
A21G A41G C93A C132A

Polymerase ribozyme fitness (log ratio), ≤ -4.2:
A20U A52U U55A C85A U111G C125U G141C U146C
A21C A24G A39C G86U G133C
A20G A22U G59A C93G A98G A137G U139G
A21C A98U U135G
A20G U78C G88U C105U
A21U A49C C99U U139A C149U
A20U A73C G136U A137G
A21G A41U A60C G80A G88U A98G C125U
A21U A24U C32G C38G G126U A138G
A20G C63U G65U G83A C149A
A21C C43U C57U A73C C85G A119U
A20U U55A C72G U82A G126U U127G C132A
A20C U31G A49C A52C U53C
A20U C38U A64G G117U U135C
A20U G83U U90G C99A A107U U148A
A20G A91G G124C G143C
A20G A30U C32G C35G C57G C95A C114U
A20G A24C C51A G68A U82A A106U C123A U151G
A21U A28G G48A G50A G84U A97G C108G
A20U A30U G92U
A20C G70C G80A U90C G133C
A21C U77G A91C
A20U C43U C54U C99G G143U A147C
A20G C57G A66C G94A C132U
A20U A37U C57A C87A C95U A120U A150C
A20C A39U A107U G126U G141C
A21U A24U G70C G92U G143U A150U
A20G A89G C95U G100U
A21C A60U G84A C95G C105U A110U
A21G U53A U77G U134G U139A
A21C A39G A52G C85U G88C U109G
A21U A41C G42U C87U C99U U104G C116A C132G
A20U G48A U53A G71U A121G
A20U G50U A73U C87A C95G A119U U146G U151G
A20U G86A C87G A91U C118A
A20G U53A U78G A97G A98U C118A U144C A150C
A20G G34C C38A C76U U90C C114U
A21U C96A A110G C116U U145G
A20G U31G C54U G71C C123G U144A
A20C C27G G94A C96G C105G A115G
A21G C32G G50A U56G A73C G92C
A21U C57A A107C A122G C123U U135C U145A
A20U G50A G88C C129A
A21C A29G A30U A40U U45G C96G
A21U A37G U55G A60C U77G A97G
A20C C85U A122C G133A G140C
A20C C43G G83A
A21G G25U A64U G92U
A20U A23U A64C A91G A107G
A20G A24G C51U C85U A120U C149G
A20U U56A G94C A98G G133A
A21G G42U C54A C72U C76U C79U G84U
A20U A41U C114U G126A U135G U146C
A20U A23G A41C
A20G C87G C131G
A21C U53A C87G
A21U A24U C57G C93A U102G G124A U134C
A20U A23C C79U G94C C95U U148A
A20U C99U A107G U135G G140A A142G
A20U A24U A30G C79G A91C A97U A115C
A21G A22C A49G U53A G83C
A21G A28C G50U C54A G94A C114G
A20U U61G A89C A91C C93A U101A
A21G A28G U61C
A20C G50C C69U
A20C C87A G100A
A20C U44G A52G C57U C85A A89G U139C
A20U C57A G71U C87A
A21C G50A C57A C93A U135G

Polymerase ribozyme fitness (log ratio), 0.655:
A21C A142C
